Results as given in paper PMC4336329 (PLoS ONE, 2015).
The campaign covered roughly 310,000 compounds. About 14,000 (4.5%) showed an effect of 50% or more. Effects have a minus sign here. Some of the results follow. Where a SMILES comes first, the peptide text is derived from it. [ ]: non-standard residue; d: D form. The star is where a group is joined. ξ: configuration not given here. Cbz = O=C(OCc1ccccc1)*; ξS = NC(CO)C(=O)O

Biological target: human ether-à-go-go-related gene (hERG) potassium channel (human, UniProt Q12809)
Sequence (Q12809 whole entry, looked up): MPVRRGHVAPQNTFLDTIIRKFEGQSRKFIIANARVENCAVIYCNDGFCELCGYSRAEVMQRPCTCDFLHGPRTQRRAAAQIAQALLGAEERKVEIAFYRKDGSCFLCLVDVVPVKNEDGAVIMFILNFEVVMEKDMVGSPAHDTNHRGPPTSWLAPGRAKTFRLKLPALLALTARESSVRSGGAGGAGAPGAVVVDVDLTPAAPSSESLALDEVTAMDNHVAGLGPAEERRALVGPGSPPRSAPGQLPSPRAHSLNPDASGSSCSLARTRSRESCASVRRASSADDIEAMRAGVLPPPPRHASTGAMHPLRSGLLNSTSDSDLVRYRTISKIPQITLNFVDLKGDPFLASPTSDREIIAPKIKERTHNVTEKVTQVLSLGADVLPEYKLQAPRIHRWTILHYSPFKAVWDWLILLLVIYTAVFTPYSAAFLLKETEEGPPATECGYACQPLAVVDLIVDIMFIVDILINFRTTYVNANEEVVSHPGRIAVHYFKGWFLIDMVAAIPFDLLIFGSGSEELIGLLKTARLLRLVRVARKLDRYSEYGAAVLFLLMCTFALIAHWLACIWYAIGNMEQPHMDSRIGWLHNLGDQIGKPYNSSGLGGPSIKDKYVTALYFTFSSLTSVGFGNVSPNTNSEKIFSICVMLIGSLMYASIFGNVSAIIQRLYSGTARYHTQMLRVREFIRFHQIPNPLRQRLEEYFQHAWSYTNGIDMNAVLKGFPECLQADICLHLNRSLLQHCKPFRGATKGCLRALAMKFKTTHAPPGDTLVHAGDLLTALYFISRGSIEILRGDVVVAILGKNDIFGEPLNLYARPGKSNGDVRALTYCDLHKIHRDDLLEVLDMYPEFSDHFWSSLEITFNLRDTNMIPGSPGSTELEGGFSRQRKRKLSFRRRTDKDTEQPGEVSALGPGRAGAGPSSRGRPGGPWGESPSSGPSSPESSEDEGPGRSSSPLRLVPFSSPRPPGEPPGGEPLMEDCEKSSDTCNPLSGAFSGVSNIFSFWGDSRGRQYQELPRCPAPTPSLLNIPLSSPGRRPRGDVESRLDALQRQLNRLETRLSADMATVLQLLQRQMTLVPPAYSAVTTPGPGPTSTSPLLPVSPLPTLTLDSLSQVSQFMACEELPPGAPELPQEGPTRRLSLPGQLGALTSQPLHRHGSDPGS
Experiment: primary screen, population patch clamp on CHO cells stably expressing hERG
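Also: peak tail current of the secondary pulse compared with the same well before compound.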

Compound | hERG current change (%, negative = inhibition) at 10uM
COc1cc(/C=C/C(=O)c2ccc(NS(=O)(=O)c3ccc(C)cc3)cc2)ccc1OC(F)F | 10.3%
CC(=O)Nc1cccc([N+](=O)[O-])c1 | 11.1%
O=Cc1ccccc1-c1cn(CN2C(=O)c3ccccc3C2=O)nn1 | 3.42%
CCN(CC)C(=O)c1ccc(NC(=O)c2cc(-n3cnnc3)ccc2Cl)cc1 | 11.5%
CCN1C(=O)/C(=C/N(C)C)c2ccccc21 | -6.17%
Cc1cc(N/N=C/c2ccc(N(C)C)cc2)c2ccccc2n1 | 12.3%
COc1cccc(-n2c(-c3cccc(S(=O)(=O)N(C)C)c3)n[nH]c2=S)c1 | 8.65%
Cn1c(=O)c2c(nc(Sc3nc4ccccc4n3CC(=O)N3CCCCC3)n2C)n(C)c1=O | 6.27%
CCOC(=O)c1cn2nc(Oc3ccc(C(=O)OC)cc3)ccc2n1 | -8.98%
CCOc1ccccc1OCC(=O)Nc1c(C)n(C)n(-c2ccccc2)c1=O | -6.05%
CCC1=NN2C(=N)/C(=C\c3cccn3-c3c(C)cccc3C)C(=O)N=C2S1 | -79.4%
CCOc1c(Cl)cc(C(=O)Nc2ccccc2-c2ccccc2)cc1Cl | 14.5%
Cl.NCCCP(=O)(O)CCc1ccccc1 | 4.1%
CCOc1cc(C(=O)N/N=C/c2ccsc2)cc(OCC)c1OCC | 1.12%
COc1ccc(C(=O)NC(C)c2nnc(SCC(=O)NC3CCCCC3)n2C)cc1 (stereo not drawn) | 5.98%
O=C(NCCCNCCCNC(=O)c1ccc(/C=N/O)nc1)c1ccc(/C=N/O)nc1 | 7.14%
N#Cc1cccc(NC(=O)COc2ccc(-n3ccnc3)cc2)c1 | -67.5%
O=C(O)Cc1csc(-c2cccc(F)c2)n1 | 19.1%
CN1CCCN(C(=O)c2cc(-c3ccc(Cl)c(Cl)c3Cl)nc3ccccc23)CC1.Cl | -69%
COc1ccc(NC(=O)CN2c3cccc4cccc(c34)S2(=O)=O)c(OC)c1 | -1.8%
Cn1ncc2c(Nc3ccc(Cl)c(Cl)c3)ncnc21 | 14.5%
COc1ccc(N2C(=O)CC(Sc3ncn[nH]3)C2=O)c(OC)c1 (stereo not drawn) | -3.68%

Compound | hERG current change (%, negative = inhibition) at 10uM
CCn1ncc(C2=NOC(C(=O)Nc3ccc(C)cc3)C2)c1C (stereo not drawn) | 8.96%
COc1ccccc1N1C(N)=NC(N)=NC12CCCCC2.Cl | 11.4%
CC1CCN(c2ccc3c(c2)S(=O)(=O)c2cccc(C(=O)NCc4cccc(F)c4)c2C3=O)CC1 | 7.58%
Nc1cc(C(=O)O)ccc1Nc1ccccc1 | -2.6%
COc1ccccc1N1CCN(C(=O)CCN2C(=O)c3cccc4cccc(c34)C2=O)CC1 | 15.5%
CC(C)(C)c1nnc(NC(=O)CS(=O)(=O)Cc2ccccc2)s1 | 8.87%
COc1ccc(C(=O)NNC(=O)CSc2nnc(C3CC3)n2C)cc1 | 9.42%
CCCNC(=O)c1ccccc1NC(=O)C1COc2ccccc2O1 (stereo not drawn) | -1.1%
COc1ccc(NC(=O)CSCC(=O)OCc2cccc(OC)c2OC)cc1 | -1.87%
CCOC(=O)c1c(NC(=O)c2ccc(S(=O)(=O)N3CCOCC3)cc2)sc2c1CC(C)(C)NC2(C)C | 3.39%
Cc1ccc(C(=O)Nc2cccc([N+](=O)[O-])c2)cc1S(=O)(=O)Nc1cccc(C(=O)O)c1 | 9.29%
CCOC(=O)Cc1csc(NC(=O)NC2(C(F)(F)F)Oc3cc(Cl)c(Cl)cc3O2)n1 | 8.69%
COC(=O)c1nn(-c2cccc(C(F)(F)F)c2)c(=O)cc1Sc1ccccn1 | -13.3%
COc1ccc(/C=C/C(=O)NCC(=O)n2nc(C)cc2C)cc1 | 7.91%
Cc1ccccc1SCCNC(=O)CCc1ccccc1 | -4.62%
CCc1ccc(C(=O)NNc2ccc(F)cc2)cc1 | 14.2%
CCOC(=O)c1ccc(NC(=O)CSc2nnnn2CCCO)cc1 | -14.3%
O=C(COc1ccccc1[N+](=O)[O-])N/N=C/C=C/c1ccco1 | 3.17%
COc1ccc(C)cc1Nc1cc(C)nc2nc(C)nn12 | -16.3%
C=CCn1c(COC)nnc1SCC(=O)c1ccc(F)cc1 | 3.25%
N=c1c(C(=O)NCc2ccco2)cc2c(=O)n3ccccc3nc2n1Cc1ccc(Cl)cc1 | -77.1%
CN1CCN(c2ccc(NC(=O)c3ccc(C#N)cc3F)cc2Cl)CC1 | -53.7%

Compound | hERG current change (%, negative = inhibition) at 10uM
COc1ccc([N+](=O)[O-])cc1/C=N/NC(=O)Cc1ccccc1 | 6.01%
COc1ccc(/C=C/c2nc3cc(-c4ccccc4)ccc3o2)cc1O | 9.02%
CC(C)/C=C/CN1CCC(Oc2ccc(C(=O)N3CCCC3)cc2)CC1 | -35.3%
NC(=O)c1cn(-c2ccccc2)nc1-c1cc2ccccc2oc1=O | -18.4%
CCN1C(=O)[C@@H]2[C@@H](c3ccc(-c4ccc(C(C)=O)cc4)cc3)N3CCC[C@@]3(C(=O)OC)[C@@H]2C1=O.O=C(O)C(F)(F)F | -29.8%
N/C(=N\OC(=O)c1cccc(F)c1)c1cccc([N+](=O)[O-])c1 | 24.1%
COC(=O)c1cccc(NC(=O)C23CC4CC(C2)CC(n2cncn2)(C4)C3)c1 | -25.4%
CCOC(=O)CNC(=O)C(CO)NC(=O)OCc1ccccc1 (stereo not drawn) (Cbz-[ξS]-Gly-OEt) | 6.84%
CCCNC(=O)c1ccc(N2CCC3(CC2)CC(c2cccc(Br)c2)=NO3)c(NC(=O)c2ccc(Cl)c([N+](=O)[O-])c2)c1 | 4.46%
CCCCNC(=O)c1cn(-c2ccc(OCC)cc2)c(=O)c2cc(OC)c(OC)cc12 | -5.2%
O=C(O)c1ccc(N/N=C/c2ccc(-c3ccc(Br)cc3)o2)cc1 | -0.136%
Cc1cc(OCC(=O)NCC2CCC(C(=O)O)CC2)c2c3c(c(=O)oc2c1)CCC3 (stereo not drawn) | 3.2%
COc1ccc(/C=N/NC(=O)CN2CCS(=O)(=O)CC2)cc1 | -2.02%
O=C(CSc1ncnc2c1cnn2-c1ccc(F)cc1)NC1CCCC1 | 11.8%
CCCNC(=O)C(Cc1ccc(Br)cc1)NC(=O)c1ccc(C#N)cc1 (stereo not drawn) | -3.74%
CN(CC(=O)NCc1cccs1)S(=O)(=O)c1cccc2nsnc12 | 0.981%
O=C(NC1CCS(=O)(=O)C1)Oc1ccccc1 (stereo not drawn) | 9.26%
CCOC(=O)c1ccc(NC(=O)CC2C(=O)N(c3ccc(F)cc3)C(=O)N2CCCOC)cc1 (stereo not drawn) | -6.74%
CCOc1ccc(C(C#N)N2CCOCC2)cc1OC (stereo not drawn) | 8.9%
O=C(O)c1cccc(NC(=S)NC(=O)C(c2ccccc2)c2ccccc2)c1 | -11.2%
Cl.O=C(NN1CCN(Cc2ccccc2Cl)CC1)c1ccc(Br)cc1 | 18.3%
COc1ccccc1N1CCN(Cc2cc(OC)c3c(c2)OCO3)CC1 | -8.69%

Compound | hERG current change (%, negative = inhibition) at 10uM
CCOC(=O)C(=CNc1ccc(NC2=NCC(C)S2)cc1)C(=O)OCC (stereo not drawn) | -10.7%
Cc1cc(NC(=O)CSc2nnc3c(C)cc4cc(C)c(C)cc4n23)no1 | 20%
COc1cccc(/C=N/n2cnc3ccccc32)c1OC | 13.6%
CC(C)c1ccc(NC(=O)C2CCCCC2C(=O)O)cc1 (stereo not drawn) | 7.18%
CCCCCCn1c(COc2ccccc2F)nnc1SCC(=O)N1c2ccccc2NC(=O)C1(C)C | -6.49%
CCOC(=O)Cc1csc(NC(=O)c2ccc(F)cc2)n1 | -11.3%
COc1cc(CNCc2c[nH]c3ccccc23)cc(OC)c1 | -4.58%
CCOC(=O)c1cc(-c2ccc(N3CCOCC3)cc2)nn1-c1ccccc1C(=O)O | 5.59%
COc1ccc(-c2cc(=O)c3c(O)c(OC)c(O)cc3o2)cc1 | -4.83%
CC1CCN(C(=O)COc2cccc3c2CCN(Cc2ccccc2)C3=O)CC1 | -36%
CCC1(C)Cc2c(sc(NC(=O)CCC(=O)O)c2C#N)CO1 (stereo not drawn) | 19.2%
CN(CCOc1ccc(Cl)cc1)C(=O)C1CCN(C(=O)c2ccc(Cl)cc2)CC1 | -75.4%
CC1CN(c2ccc([N+](=O)[O-])c(NCCOc3ccccc3)c2)CCN1 (stereo not drawn) | -2.1%
CN(c1ccccc1)C(c1ccc(F)cc1)c1nnnn1C1CCCC1 (stereo not drawn) | -17.1%
CC(=O)N/C(=C/c1ccc2c(c1)OCO2)C(=O)O | -2.32%
Nc1ccc2c(C(F)(F)F)cc(=O)oc2c1 | 13.2%
COc1ccc(Cl)cc1NC(=O)CNCc1cccs1.O=C(O)C(=O)O | -11.6%
COc1ccccc1N1CCN(C(=O)c2cc3c(s2)-c2ccccc2OC3)CC1 | 17.6%
CCOc1ccccc1NC(=S)NCCCn1ccnc1 | 43.3%
C=CCC(CC=C)(C(N)=O)c1ccccc1 | -2.73%
C=CCn1c(NC(=O)c2ccc(C)cc2)nc2ccccc21 | 6.35%
